The whole screen tested about 410,000 compounds, of which about 6,400 (1.6%) were called active. Inconclusive means that the source gave no clear call. Such entries were picked first, then a sample of the others. The call rests on the fitted dose curve; in most records, active means well fitted inhibition curve with a large enough effect; inconclusive means small, poorly fitted or top-dose-only effect; inactive means no such curve, though single readings can be large or run the other way. Potencies of inconclusive entries are left out as doubtful fits.
These compounds were tested against Glucagon-like peptide 1 receptor (Homo sapiens) (UniProt P43220) (assay: qHTS of GLP-1 Receptor Inverse Agonists (Inhibition Mode)). Conditions: HEK293 GLP-1R CRE-luciferase, luminescence, 24 h, GLP-1R form is constitutively active; activity change, negative = inhibition: at 38.3 µM (top of the series) unless noted.
How it was run: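 qHTS in 1536-well format: reporter HEK293 cells expressing constitutive GLP-1R activity in DMEM + 10% Nu serum, 24 hr with compounds at 37 deg C, luminescence read after 12 min with detection reagent.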
Further: nearly all actives have a fitted effect of over 55% in size.
On the % scale 0 is the no-effect control and ±100 the full control effect; potency means the concentration at half of the fitted maximal effect; tags describe the fitted curve by direction and shape.

Sequence of UniProt P43220 (P43220 whole entry, looked up): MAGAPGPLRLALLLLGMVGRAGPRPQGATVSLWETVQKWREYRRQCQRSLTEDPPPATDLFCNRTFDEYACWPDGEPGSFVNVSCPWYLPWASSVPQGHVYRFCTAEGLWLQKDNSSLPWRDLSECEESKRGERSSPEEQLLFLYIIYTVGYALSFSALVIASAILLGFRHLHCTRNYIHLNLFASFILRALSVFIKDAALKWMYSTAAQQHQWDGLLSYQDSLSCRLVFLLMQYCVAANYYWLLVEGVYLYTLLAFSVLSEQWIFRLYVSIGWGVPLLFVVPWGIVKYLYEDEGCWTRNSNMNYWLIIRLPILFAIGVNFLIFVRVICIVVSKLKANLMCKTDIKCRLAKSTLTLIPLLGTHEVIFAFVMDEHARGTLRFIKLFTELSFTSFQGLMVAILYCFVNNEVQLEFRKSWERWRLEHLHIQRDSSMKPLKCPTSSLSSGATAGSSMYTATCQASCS

**Q.** With Cc1nnsc1C(=O)Oc1ccccc1Cl as the compound, how does the Potency read?
**A.** Its Potency is “inactive”.

**Q.** COc1ccc(-c2csc3nc(-c4cccnc4)nc(Cl)c23)cc1OC was tested. Which Potency did it give?
**A.** The Potency was inconclusive [inhibitor, single point].

**Q.** Which Potency does the source give for COc1ccc(NC(=O)CCNS(=O)(=O)c2cc(Br)cnc2N)c(OC)c1 here?
**A.** The Potency was inconclusive [inhibitor, partial curve, poor fit].

**Q.** CCc1ccccc1NC(=S)N1CCN(c2ccccc2F)CC1 was tested. Which Potency did it give?
**A.** The Potency was inconclusive [inhibitor, single point].

**Q.** With CCN(CCNC(=O)C1CCCN(c2ncnc3c2nc2n3CCCCC2)C1)Cc1ccccc1 (stereo not given) as the compound, how does the Potency read?
**A.** Its Potency is inconclusive [inhibitor, single point].

**Q.** With CCc1nnc2c(NCCc3ccccc3)nc3ccccc3n12 as the compound, how does the Potency read?
**A.** Its Potency is “inactive”.

**Q.** For O=C(NNC(=O)c1ccc2ccccc2c1O)c1ccccc1Cl, which Potency is on record?
**A.** Its Potency is inconclusive [inhibitor, single point].

**Q.** Cc1cc(C)n(CCN(C)c2nc3nonc3nc2N2CCCCC2)n1 was tested. Which activity change, negative = inhibition did it give?
**A.** Its activity change, negative = inhibition is inactive: 0.58% [at 0.307 µM].

**Q.** Which Potency does the source give for Cc1ccc(C(=O)Nc2cc3c(cc2Cl)OCCCO3)cc1 here?
**A.** The Potency was inconclusive [inhibitor, single point].

**Q.** Which Potency does the source give for O=C(Nc1ccc(Cl)cn1)c1ccc(Oc2ccccc2)cc1 here?
**A.** Its Potency is inconclusive [inhibitor, single point].

**Q.** With Cc1cccc(NC(=O)c2sc3ncn(CC(=O)N4CCN(c5ccccn5)CC4)c(=O)c3c2C)c1 as the compound, how does the Potency read?
**A.** Its Potency is inconclusive [inhibitor, partial curve, poor fit].

**Q.** CC(C)C1C2=C(CC(C)(C)CC2=O)ON1c1ccccc1 (stereo not given) was tested. Which Potency did it give?
**A.** Its Potency is inconclusive [inhibitor, partial curve, poor fit].

**Q.** Which Potency does the source give for Cc1ccc(-c2cc(C(=O)NCc3ccco3)c3ccccc3n2)s1 here?
**A.** The Potency was inconclusive [inhibitor, single point].

**Q.** CCC(C)C(=O)Nc1nnc(-c2cccs2)s1 (stereo not given) was tested. Which Potency did it give?
**A.** The Potency was “inactive”.

**Q.** CCOc1ccc(S(=O)(=O)N2CCN(C(=O)COc3ccc(Br)cc3)CC2)cc1 was tested. Which Potency did it give?
**A.** Its Potency is inconclusive [inhibitor, single point].

**Q.** CN(CC(=O)Nc1cccc(F)c1)C(=O)CSc1ccccc1F was tested. Which Potency did it give?
**A.** The Potency was inconclusive [inhibitor, full curve, poor fit].

**Q.** With N#CC1=C(N)Oc2cc(O)ccc2C1C1CCCCC1 (stereo not given) as the compound, how does the Potency read?
**A.** The Potency was inconclusive [inhibitor, single point].

**Q.** How did the Potency turn out when CC(C)OC(=O)CN1CCN(C2c3ccccc3-c3ccccc32)CC1 was run?
**A.** Its Potency is inconclusive [inhibitor, partial curve, poor fit].

**Q.** Which Potency does the source give for Cc1[nH]c2ccc(F)cc2c1CCNC(=O)C1CCCCC1C(=O)OCC(F)(F)F (stereo not given) here?
**A.** Its Potency is inconclusive [inhibitor, single point].

**Q.** With Cc1cccc(NC(=S)NN(Cc2ccccc2)c2ccccc2)c1C as the compound, how does the Potency read?
**A.** The Potency was inconclusive [inhibitor, partial curve, poor fit].

**Q.** For CCN1CCN(c2nc(C)nc3c2sc(=S)n3C)CC1, which Potency is on record?
**A.** Its Potency is “inactive”.

**Q.** Which Potency does the source give for CC(Oc1ccccc1)C(=O)NC1CCSc2ccccc21 (stereo not given) here?
**A.** The Potency was inconclusive [inhibitor, single point].

**Q.** O=C(CCc1ccc(CCC(=O)c2cccs2)s1)c1cccs1 was tested. Which Potency did it give?
**A.** The Potency was inconclusive [inhibitor, single point].

**Q.** For CCc1ccccc1-n1nnc(-c2ccccc2)n1, which Potency is on record?
**A.** The Potency was inconclusive [inhibitor, single point].

**Q.** With CCN(CC)CCn1c(=S)[nH]c2cc(C(=O)NCc3ccccc3Cl)ccc2c1=O as the compound, how does the Potency read?
**A.** The Potency was “inactive”.

**Q.** Cc1sc2ncnc(N3CCN(CCOc4ccc(Cl)cc4)CC3)c2c1C was tested. Which Potency did it give?
**A.** The Potency was inconclusive [inhibitor, partial curve].

**Q.** How did the Potency turn out when Cc1cccc(N2CCN(Cc3cc(=O)n4ccsc4n3)CC2)c1C was run?
**A.** The Potency was inconclusive [inhibitor, partial curve, poor fit].

**Q.** Which Potency does the source give for Cc1nc(-c2ccc3c(c2)OCCCO3)cs1 here?
**A.** The Potency was “inactive”.

**Q.** CC1(C)S/C(=N/N=C/c2cccs2)NC1=O was tested. Which Potency did it give?
**A.** The Potency was “inactive”.

**Q.** How did the Potency turn out when Nc1ccccc1/C=N\N=C/c1ccccc1N was run?
**A.** The Potency was inconclusive [inhibitor, single point].

**Q.** For Cn1c(=S)[nH]c2cccnc21, which Potency is on record?
**A.** Its Potency is “inactive”.

**Q.** Which Potency does the source give for Cc1ccc2c(c1)N(CC(=O)Nc1ccccc1C(F)(F)F)C(=O)c1cccnc1O2 here?
**A.** The Potency was “inactive”.

**Q.** CCCC1(CCC)NC(=O)N(CC(=O)Nc2ccc3c(c2)OCCO3)C1=O was tested. Which Potency did it give?
**A.** Its Potency is inconclusive [inhibitor, full curve, poor fit].

**Q.** COC(=O)[C@@]12C[C@@H](CC(=O)NCC3CCCCC3)C(=O)N(CCc3ccc(OC)c(OC)c3)C1=CCC(C)(C)C2 was tested. Which Potency did it give?
**A.** The Potency was inconclusive [inhibitor, partial curve, poor fit].

**Q.** Which Potency does the source give for Cc1ccc(S(=O)(=O)N2CCCCC2)cc1NC(=O)CNc1ccc(C(F)(F)F)cc1 here?
**A.** Its Potency is inconclusive [inhibitor, partial curve, poor fit].

**Q.** With Cc1ccccc1-c1nn(-c2ccc(F)cc2F)cc1CNC1CC1 as the compound, how does the Potency read?
**A.** Its Potency is inconclusive [inhibitor, partial curve, poor fit].

**Q.** How did the Potency turn out when Cc1ccc(NC(=O)c2c3c(nc4ccccc24)CCC3)cc1S(=O)(=O)N(C)C was run?
**A.** Its Potency is inconclusive [inhibitor, single point].

**Q.** CCc1ccc(CN2CCC(n3nccc3NC(=O)c3cccc(F)c3)CC2)cc1 was tested. Which Potency did it give?
**A.** The Potency was inconclusive [inhibitor, partial curve, poor fit].

**Q.** Which Potency does the source give for COCc1nn2c(N)c(-c3ccccc3)cnc2c1-c1ccccc1 here?
**A.** Its Potency is inconclusive [inhibitor, partial curve, poor fit].

**Q.** CCOCC(=O)Nc1nc(C)cc(C)n1 was tested. Which Potency did it give?
**A.** The Potency was “inactive”.

**Q.** With O=C1C(Cl)=C(Nc2ccc(F)cc2)C(=O)N1CCc1ccccc1 as the compound, how does the Potency read?
**A.** The Potency was inconclusive [inhibitor, single point].

**Q.** CN=c1scc(-c2ccc(F)cc2)n1/N=C/c1ccc(O)c(O)c1 was tested. Which Potency did it give?
**A.** The Potency was inconclusive [inhibitor, single point].

**Q.** Which Potency does the source give for CO/N=C/NC(=O)Cc1cn(-c2ncc(C(F)(F)F)cc2Cl)c2ccccc12 here?
**A.** Its Potency is inconclusive [inhibitor, single point].

**Q.** For Cc1ccccc1-n1nnnc1SCC(C)C, which Potency is on record?
**A.** Its Potency is inconclusive [inhibitor, single point].

**Q.** Which Potency does the source give for Cc1cccc(N(C(=O)CS(=O)CC(=O)Nc2ccc3c(c2)OCO3)C(C)C(=O)NC2CCCC2)c1C (stereo not given) here?
**A.** The Potency was inconclusive [inhibitor, single point].

**Q.** With N#Cc1ccccc1OCC(=O)NCc1ccccc1CN1CCCC1 as the compound, how does the Potency read?
**A.** Its Potency is inconclusive [inhibitor, single point].

**Q.** For C=CC[C@H](CC(=O)N(CCO)Cc1ccccc1)C(=O)N[C@H](C)COC(=O)[C@@H](CC=C)Cc1ccc(F)cc1, which Potency is on record?
**A.** The Potency was active: 11.2 µM.

**Q.** Which Potency does the source give for COc1cccc(/C=N/Nc2ncnc3scc(-c4ccccc4)c23)c1OC here?
**A.** Its Potency is inconclusive [inhibitor, partial curve, poor fit].

**Q.** CCc1ccc2c(c1)NC(=O)C2(C)Cc1ccc(C(F)(F)F)o1 (stereo not given) was tested. Which Potency did it give?
**A.** Its Potency is inconclusive [inhibitor, single point].

**Q.** COc1cccc(/C=C2/Sc3ccc(C(=O)NCCN4CCCCCC4)cc3NC2=O)c1 was tested. Which Potency did it give?
**A.** Its Potency is inconclusive [inhibitor, partial curve, poor fit].

**Q.** With O=S(=O)(NCCSCc1ccc(Cl)c(Cl)c1)c1ccc2c(c1)OCCO2 as the compound, how does the Potency read?
**A.** The Potency was inconclusive [inhibitor, partial curve, poor fit].

**Q.** For COc1cccc(/C=C2\CCC(C3CCCC3)C2=O)c1OC (stereo not given), which Potency is on record?
**A.** The Potency was inconclusive [inhibitor, partial curve, poor fit].

**Q.** For C/C(=C\c1ccccc1)C(=O)Nc1nccs1, which Potency is on record?
**A.** Its Potency is inconclusive [inhibitor, partial curve].

**Q.** How did the Potency turn out when CCCc1[nH]nc2c1C(CCc1ccccc1)C(C#N)=C(N)O2 (stereo not given) was run?
**A.** Its Potency is inconclusive [inhibitor, single point].

**Q.** For c1ccc(COC2CCCN(Cc3nc(Cc4ccccc4)no3)C2)cc1 (stereo not given), which Potency is on record?
**A.** The Potency was inconclusive [inhibitor, single point].

**Q.** How did the Potency turn out when Cc1cccc(CSCCNC(=O)C2CCN(S(=O)(=O)Cc3ccccc3)CC2)c1 was run?
**A.** Its Potency is “inactive”.

**Q.** For CCC(CC)C(=O)Nc1nnc(S(=O)(=O)N(C)c2cc(C)cc(C)c2)s1, which Potency is on record?
**A.** Its Potency is inconclusive [inhibitor, partial curve, poor fit].

**Q.** For Cc1cc(C(=O)NC2CC(C)(C)Cc3c2cnn3-c2ccccc2C)c(C)o1 (stereo not given), which Potency is on record?
**A.** Its Potency is inconclusive [inhibitor, partial curve].

**Q.** How did the Potency turn out when COc1ccc(-c2nc(Cn3c(SCc4ccc(C)cc4)nc4ccncc43)c(C)o2)cc1OC was run?
**A.** The Potency was inconclusive [inhibitor, single point].

**Q.** With Cc1cccc(N(CC(=O)NCCc2ccccc2)S(=O)(=O)c2ccccc2)c1C as the compound, how does the Potency read?
**A.** The Potency was inconclusive [inhibitor, single point].

**Q.** CCN1CCN(Cc2ccc(NC(=O)Nc3ccccc3Cl)cc2)CC1 was tested. Which Potency did it give?
**A.** The Potency was inconclusive [inhibitor, partial curve, poor fit].

**Q.** For CC(=O)c1ccc(NC(=O)c2onc(C)c2Cl)cc1, which Potency is on record?
**A.** Its Potency is inconclusive [inhibitor, single point].

**Q.** CCNC(=S)Nc1ccc(C)c(S(=O)(=O)Nc2ccccc2OC)c1 was tested. Which Potency did it give?
**A.** The Potency was inconclusive [inhibitor, single point].

**Q.** Which Potency does the source give for CC(C)C(NC(=O)c1ccc(Cl)cc1Cl)C(=O)N1CCN(S(=O)(=O)c2ccccc2)CC1 (stereo not given) here?
**A.** Its Potency is inconclusive [inhibitor, partial curve, poor fit].

**Q.** CC(C)=CCC/C(C)=C/CNC(=O)C[C@H]1C[C@H](C(=O)N2CCOCC2)[C@@]2(C)c3[nH]c4cc(-c5ccco5)ccc4c3CCN2C1=O was tested. Which Potency did it give?
**A.** Its Potency is inconclusive [inhibitor, single point].

— PubChem BioAssay AID624417 (National Center for Advancing Translational Sciences (NCATS), 2012)
